Test results taken from the supplement of paper PMC4604168 (melanoma cell lines).
This is one part of the list. Most values come without repeats; read them as rough.

System: SkMel5
Test: cell count relative to DMSO control; melanoma cells; higher = more viable cells
Settings: library dose: standard library concentration; 72 h
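Further: cells treated in 1,536-well plates, then fixed and DAPI-stained, with nuclei counted from automated high-throughput microscope images.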

SMILES | cell count [%]
Cc1ccc(Nc2nccc(N(C)c3ccc4c(C)n(C)nc4c3)n2)cc1S(N)(=O)=O [Pazopanib] + Cc1cc([N+](=O)[O-])ccc1NS(=O)(=O)c1cc(Cl)ccc1Cl [FH535] (first compound 2 µM, partner dose 5 µM) | 47.3
O=C(/C=C/c1cccnc1)NCCCCC1CCN(C(=O)c2ccccc2)CC1 + Oc1nc(-c2ccc(C(F)(F)F)cc2)nc2c1CSCC2 [XAV939] (first compound 0.05 µM, partner dose 10 µM) | 72.1
CC1(C)CCC(c2ccc(Cl)cc2)=C(CN2CCN(c3ccc(C(=O)NS(=O)(=O)c4ccc(N[C@H](CCN5CCOCC5)CSc5ccccc5)c(S(=O)(=O)C(F)(F)F)c4)cc3)CC2)C1 + COc1ccc(COc2ccc(Cc3cnc(N)nc3N)cc2OC)cc1 [GW2580] (first compound 2 µM, partner dose 5 µM) | 93.3
O=C(/C=C/c1cccnc1)NCCCCC1CCN(C(=O)c2ccccc2)CC1 + NCC(=O)Nc1ccc(-n2nc(C(F)(F)F)cc2-c2ccc3c(ccc4ccccc43)c2)cc1 [OSU03012] (first compound 0.05 µM, partner dose 5 µM) | 73.2
CC1(C)CCC(c2ccc(Cl)cc2)=C(CN2CCN(c3ccc(C(=O)NS(=O)(=O)c4ccc(N[C@H](CCN5CCOCC5)CSc5ccccc5)c(S(=O)(=O)C(F)(F)F)c4)cc3)CC2)C1 + O=C(Nc1cccc(Cl)c1)Nc1ncc(CCNc2ncnc3ccsc23)s1 [SNS314] (first compound 2 µM, partner dose 0.004 µM) | 107
CC1(C)CCC(c2ccc(Cl)cc2)=C(CN2CCN(c3ccc(C(=O)NS(=O)(=O)c4ccc(N[C@H](CCN5CCOCC5)CSc5ccccc5)c(S(=O)(=O)C(F)(F)F)c4)cc3)CC2)C1 + Oc1nc(-c2ccc(C(F)(F)F)cc2)nc2c1CSCC2 [XAV939] (first compound 2 µM, partner dose 10 µM) | 49.2
O=C(/C=C/c1cccnc1)NCCCCC1CCN(C(=O)c2ccccc2)CC1 + O=C(O)C(=O)Nc1sc2c(c1C(=O)O)CCNC2 [TCS401] (first compound 0.05 µM, partner dose 8.33333 µM) | 96.6
O=C(/C=C/c1cccnc1)NCCCCC1CCN(C(=O)c2ccccc2)CC1 + O=C(Nc1ccccc1)c1cc([N+](=O)[O-])ccc1Cl [GW9662] (first compound 0.05 µM, partner dose 10 µM) | 83.2
CC1(C)CCC(c2ccc(Cl)cc2)=C(CN2CCN(c3ccc(C(=O)NS(=O)(=O)c4ccc(N[C@H](CCN5CCOCC5)CSc5ccccc5)c(S(=O)(=O)C(F)(F)F)c4)cc3)CC2)C1 + N#Cc1c(O)c2c(-c3ccc(-c4ccccc4O)cc3)csc2[nH]c1=O [A769662] (first compound 2 µM, partner dose 10 µM) | 88.5
CC1(C)CCC(c2ccc(Cl)cc2)=C(CN2CCN(c3ccc(C(=O)NS(=O)(=O)c4ccc(N[C@H](CCN5CCOCC5)CSc5ccccc5)c(S(=O)(=O)C(F)(F)F)c4)cc3)CC2)C1 + COc1cc2ncnc(Nc3ccc(Oc4ccccc4)cc3)c2cc1OC [SrcI1] (first compound 2 µM, partner dose 10 µM) | 69.8
O=C(/C=C/c1cccnc1)NCCCCC1CCN(C(=O)c2ccccc2)CC1 + N#Cc1c(O)c2c(-c3ccc(-c4ccccc4O)cc3)csc2[nH]c1=O [A769662] (first compound 0.05 µM, partner dose 10 µM) | 108
CC1(C)CCC(c2ccc(Cl)cc2)=C(CN2CCN(c3ccc(C(=O)NS(=O)(=O)c4ccc(N[C@H](CCN5CCOCC5)CSc5ccccc5)c(S(=O)(=O)C(F)(F)F)c4)cc3)CC2)C1 + CCCCCCCCc1ccc(CCC(N)(CO)CO)cc1 [fingolimod] (first compound 2 µM, partner dose 10 µM) | 33.9
CC1(C)CCC(c2ccc(Cl)cc2)=C(CN2CCN(c3ccc(C(=O)NS(=O)(=O)c4ccc(N[C@H](CCN5CCOCC5)CSc5ccccc5)c(S(=O)(=O)C(F)(F)F)c4)cc3)CC2)C1 + O=S(=O)(c1ccccc1)N(CC(F)(F)F)c1ccc(C(O)(C(F)(F)F)C(F)(F)F)cc1 [T0901317] (first compound 2 µM, partner dose 7 µM) | 78.4
O=C(/C=C/c1cccnc1)NCCCCC1CCN(C(=O)c2ccccc2)CC1 + CC(C)CCN1c2nc(Nc3cc(F)c(O)c(F)c3)ncc2N(C)C(=O)C1C [BID1870] (first compound 0.05 µM, partner dose 1 µM) | 65.4
O=C(/C=C/c1cccnc1)NCCCCC1CCN(C(=O)c2ccccc2)CC1 + Cc1cc([N+](=O)[O-])ccc1NS(=O)(=O)c1cc(Cl)ccc1Cl [FH535] (first compound 0.05 µM, partner dose 5 µM) | 79.1
Cc1ccc(Nc2nccc(N(C)c3ccc4c(C)n(C)nc4c3)n2)cc1S(N)(=O)=O [Pazopanib] + O=C(Nc1ccccc1)c1cc([N+](=O)[O-])ccc1Cl [GW9662] (first compound 2 µM, partner dose 10 µM) | 88.9
Cc1ccc(Nc2nccc(N(C)c3ccc4c(C)n(C)nc4c3)n2)cc1S(N)(=O)=O [Pazopanib] + COc1ccc(COc2ccc(Cc3cnc(N)nc3N)cc2OC)cc1 [GW2580] (first compound 2 µM, partner dose 5 µM) | 57.3
